Measurements published in the supplement of paper PMC12217912.
This is one part of the list. The full chains were built here from the parent and the listed change. Values near 0.05 are background.

B1: TEV protease; numbered along this chain (parent)
chain: MGESLFKGPRDYNPISSSICHLTNESDGHTTSLYGIGFGPFIITNKHLFRRNNGTLVVQSLHGVFKVKDTTTLQQHLVDGRDMIIIRMPKDFPPFPQKLKFREPQREERICLVTTNFQTKSMSSMVSDTSCTFPSGDGIFWKHWIQTKDGQCGSPLVSTRDGFIVGIHSASNFTNTNNYFTSVPKNFMELLTNQEAQQWVSGWRLNADSVLWGGHKVFMVKPEEPFQPVKEATQL

Variants of: B1
Assay: raw area under fraction-flipped curve 0-4 h after induction (AUC4h, not background-subtracted), DNA-recorder readout of cleavage of the substrate (dimensionless); higher = more cleavage of the substrate by the protease variant
Conditions: temperature: 34 °C; time window: 0-4 h after rhamnose induction
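Further: Bxb1 expression induced with 0.2% (w/v) L-rhamnose at OD600 near 0.5, cultures sampled hourly, flipped fraction per protease–substrate barcode pair counted by paired-end Illumina sequencing.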

Variant | area with substrate ENCYFQS | area with substrate ENFYFQS | area with substrate ENHYFQS | area with substrate ENNYFQS | area with substrate ENPYFQS | area with substrate ENSYFQS | area with substrate ENVYFQS | area with substrate ENWYFQS | area with substrate ENYYFQS | area with substrate ENDYFQS | area with substrate ENEYFQS | area with substrate ENGYFQS | area with substrate ENMYFQS | area with substrate ENQYFQS | area with substrate ENIYFQS | area with substrate ENRYFQS | area with substrate ENTYFQS | area with substrate ENKYFQS
MGESLFKGPRDYNPISSSICHLTNESDGHTTSLYGIGFGPFIITNKHLFRRNNGTLVVQSLHGVFKVKDTTTLQQHLVDGRDMIIIRMPKDFPPFPQKLKFREPQREERICLVTTNFQTKSMSSMVSDTSCTFPSGDGIFWKHWIQTKDGQCGSPLVSTRDGFIVGIHSASNFTNTNNYLTSVPKNFMELLTNQEAQQWVSGWRLNADSVLWGGHKVFMVKPEEPFQPVKEATQL [F180L] | 0.102 | 0.0574 | 0.0589 | 0.0642 | 0.0524 | 0.0541 | 0.0818 | 0.0603 | 0.0653 | – | – | – | – | – | – | – | – | –
MGESLFKGPRDYNPISSSICHLTNESDGHTTSLYGIGFGPFIITNKHLFRRNNGTLVVQSLHGVFKVKDTTTLQQHLVDGRYMIIIRMPKDFPPFPQKLKFREPQREERICLVTTNFQTKSMSSMVSDTSCTFPSGDGIFWKHWIQTKDGQCGSPLVSTRDGFIVGIHSASNFTNTNNYFTSVPKNFMELLTNQEAQQWVSGWRLNADSVLWGGHKVFMVKPEEPFQPVKEATQL [D82Y] | – | – | 0.0499 | – | – | – | 0.0693 | – | – | 0.058 | 0.0547 | 0.0617 | 0.0483 | 0.0471 | – | – | – | –
MGESLFKGPRDYNPISSSICHLTNESDGHTTSLYGIGFGPFIITNKHLFRRNNGTLVVQSLHGVFKVKDTTTLQQHLVDGRDMIIIRMPKDFPPFPQKLKFREPQREERICLVTTNFQTKSMSSMVSDTSCTFPSGDGIFWKHWIQTKDGQCGSPLVSTRDGFIVGIHSASNFTNTNNYFTSVPKNFMELLTNQEAQQWVSGYRLNADSVLWGGHKVFMVKPEEPFQPVKEATQL [W203Y] | 0.0683 | – | 0.0519 | – | – | 0.0725 | 0.0632 | – | – | – | 0.0551 | – | – | 0.0553 | 0.0957 | 0.0612 | 0.0519 | –
MGESLFKGPRDYNPISSSICHLTNESDGHTTSLYGIGFGPFIITNKHLFRRNNGTLVVQLLHGVFKVKDTTTLQQHLVDGRDMIIIRMPKDFPPFPQKLKFREPQREERICLVTTNFQTKSMSSMVSDTSCTFPSGDGIFWKHWIQTKDGQCGSPLVSTRDGFIVGIHSASNFTNTNNYFTSVPKNFMELLTNQEAQQWVSGWRLNADSVLWGGHKVFMVKPEEPFQPVKEATQL [S60L] | – | – | 0.047 | – | – | 0.0718 | 0.0686 | – | – | 0.0515 | – | 0.0513 | – | 0.0585 | 0.0958 | – | 0.08 | –
MGESLFKGPRDYNPISSSICHLTNESDGHTTSLYGIGFGPFIITNKHLFRRNNGTLVVQSLHGVFKVKDTTTLQQHLVDGRDMIIIRMPKDFPPFPQKLKFREPQREERICLVTTNFQTKSMSSMVSDTSCTFPSGDGIFWKHWIQTKDGQCGSPLVSTRDGFIVGIHSASNFTNTNNYFTSVPKNFMELLTNQEAQQWVSGWRLNADSVLWGGHKVFMIKPEEPFQPVKEATQL [V220I] | 0.0646 | 0.0613 | 0.0698 | 0.0507 | 0.0902 | 0.0719 | 0.0806 | – | – | 0.0583 | 0.0695 | 0.0619 | 0.076 | – | 0.127 | 0.0418 | 0.0604 | 0.0527
MGESLFKGPRDYNPISSSICHLTNESDGHTTSLYGIGFGPFIITNKHLFRRNNGTLVVQSLHGVFKVKDTTTLQQHLVDGRDMIIIRMPKDFPPFPQKLKFREPQREERICLVTTNFQTKSMSSMVSDTSCTFPSGDGIFWKHWIQTKDGQCGSPLVSTRDGFIVGIHSASNFTNTNNYFTSVPKNFMELLTNQEAQQWVSGWRLNADSVLWGGDKVFMVKPEEPFQPVKEATQL [H215D] | 0.0597 | 0.075 | 0.0661 | 0.0678 | 0.0605 | 0.0548 | 0.0545 | 0.0607 | – | 0.0698 | – | 0.063 | 0.0615 | 0.0578 | – | 0.0635 | 0.0621 | 0.0638
MGESLFKGPRDYNPISSSICHLTNESDGHTTSLYGIGFGPFIITNKHLFRRNNGTLVVQSLHGVFKVKDTTTLQQHLVDGRDMIIIRMPKDFPPFPQKLKFREPQREERICLVTTNFQTKSMSSMVSDTSCTFPSGDGIFWKHWIQTKDGQCGSPLVSTRDGFIVGIHSASNFTNTNNYFTSVPKNQMELLTNQEAQQWVSGWRLNADSVLWGGHKVFMVKPEEPFQPVKEATQL [F187Q] | 0.055 | – | 0.0619 | 0.0558 | – | 0.049 | 0.0552 | – | 0.0445 | – | – | 0.0622 | – | 0.0567 | 0.0569 | 0.0606 | 0.0456 | –
MGESLFKGPRDYNPISSSICHLTNESDGHTTSLYGIGFGPFIITNKHLFRRNNGTLVVQSLHGVFKVKDTTTLQQHLVDGRDMIIIRMPKDFPPFPQKLKFREPQREERICLVTTNFQTKSMSSMVPDTSCTFPSGDGIFWKHWIQTKDGQCGSPLVSTRDGFIVGIHSASNFTNTNNYFTSVPKNFMELLTNQEAQQWVSGWRLNADSVLWGGHKVFMVKPEEPFQPVKEATQL [S127P] | – | – | 0.0504 | 0.0576 | 0.0603 | 0.05 | 0.0811 | – | – | 0.0723 | 0.0633 | 0.0602 | 0.0682 | 0.047 | – | 0.0583 | 0.0661 | 0.0595
MGESLFKGPRDYNPISSSICHLTNESDGHTTSLYGIGFGPFIITNKHLFRRNNGTLVVQSLHGVFKVKDTTTLQQHLVDGRDMIIIRMPKDFPPFPQKLKFREPQREERICLVTTNFQTKSMSSMVSDTSCTFPSGDGIFWKHWIQTKDGQCGSPLVSTRDGFIVGIHSASNFTNTNNYFTSVPKNFMELLTNQEAQQHVSGWRLNADSVLWGGHKVFMVKPEEPFQPVKEATQL [W199H] | 0.068 | – | 0.0567 | – | – | 0.0672 | – | – | – | 0.0683 | 0.0524 | 0.0612 | – | 0.0709 | 0.0685 | 0.057 | 0.0687 | –
MGESLFKGPRDYNPISSSICHLTNESDGHTTSLYGIGFGPFIITNKHLFRRNNGTLVVQSLHGVFKVKDTTTLQQHLVDGRDMIIIRMPKDFPPFPQKLKFREPQREERICLVTTNFQTKSMSSMVSDTSCTFPSGDGIFWKHWIQTKDGQCGSPLVSTRDGFIVGIHSASNFTNTNNYFTSVPKNFMELLTNQEAQQWVSGWRLNADSVLWGGHKVFMVKPEEPFQPVKEAGQL [T233G] | 0.0625 | 0.0497 | 0.056 | 0.0492 | 0.0565 | 0.057 | 0.0684 | 0.0557 | 0.0516 | 0.0445 | – | 0.0675 | 0.0676 | 0.0659 | – | – | 0.079 | 0.0635
